“And” between values parts separate entries of the source, which are not always exact repeats. Equal values may be shown once. Where a name gives a salt, the structure may show the parent alone. Hit rate of the full screen: of about 5,800 compounds, about 620 (11%) showed activity.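 How the source made its calls: active = score above a cut-off or among the top three wells of a plate; in these data no inactive exceeds 0.85.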 The entries are a selection whose mix differs from that of the whole data set.
System: primary human hepatic stellate cells (donor 1)
Assay: scaled lipid accumulation score (0 = DMSO-like, 1 = nortriptyline-like); higher = stronger HSC inactivation (lipid re-accumulation), active = hit call of the paper
Settings: 48 h
[1] = library stock concentration: 10 mM
[2] = library stock concentration: 3.33 mM
[3] = library stock concentration: 1 mM
[4] = library stock concentration: 2 mM
[5] = library stock concentration: 4.8 mM

S=C=Nc1cccc(C2(N3CCCCC3)CCCCC2)c1 [Metaphit]
scaled lipid accumulation score [1]: active: 0.949

FC(F)(F)c1cccc(C2=CCN(CCc3ccc4ccccc4c3)CC2)c1 [Xaliproden hydrochloride]
scaled lipid accumulation score [1]: inactive: 0.229

CC1(C)[C@@H](O)C[C@H]2[C@](C)(O)[C@@H]3CC[C@@H]4[C@@H](O)[C@@]3(C[C@@H](O)[C@@]21O)C[C@@]4(C)O [Grayanotoxin III]
scaled lipid accumulation score (library stock concentration: 13.5 mM): inactive: ≤ -0.021

Nc1ccc([As](=O)(O)O)cc1 [Arsanilic acid]
scaled lipid accumulation score (library stock concentration: 9.2 mM): inactive: 0.028

O=c1[nH]c2ccc(Cl)cc2c(N[C@@H]2CN3CCC2CC3)c1-c1nc2ccccc2[nH]1
scaled lipid accumulation score [2]: inactive: 0.158 | scaled lipid accumulation score [1]: inactive: 0.485

c1cc(N2CCNCC2)c2cnccc2c1 [8-piperazin-1-yl-Isoquinoline (hydrochloride)]
scaled lipid accumulation score [3]: inactive: 0.005

CCCCCCCC/C=C\CCCCCCCC(=O)N[C@H](C)CO
scaled lipid accumulation score [3]: inactive: 0.021

COP(=S)(OC)Oc1cc(Cl)c(Cl)cc1Cl [Ronnel]
scaled lipid accumulation score (library stock concentration: 6.2 mM): inactive: ≤ 0

NCCc1c[nH]c2ccc(C(N)=O)cc12 [5-Carboxamidotryptamine maleate]
scaled lipid accumulation score [1]: inactive: ≤ -0.07 and inactive: 0.054

N#CC(C#N)=Cc1ccc([N+](=O)[O-])c(O)c1
scaled lipid accumulation score [3]: inactive: ≤ 0

N#CC(C#N)=Cc1ccc([N+](=O)[O-])c(O)c1 [Tyrphostin AG-126]
scaled lipid accumulation score (library stock concentration: 23.2 mM): inactive: ≤ -0.012

CCN(CC)C(=O)c1ccc(C2=CC3(CCNCC3)Oc3cccc(O)c32)cc1
scaled lipid accumulation score [2]: inactive: ≤ 0 | scaled lipid accumulation score [1]: inactive: 0.271

CC[C@H]1CN2CCc3cc(OC)c(OC)cc3[C@@H]2C[C@@H]1C[C@H]1NCCc2cc(OC)c(OC)cc21.Cl.Cl [Emetine dihydrochloride]
scaled lipid accumulation score: active: 0.98

O=S1(=O)N(CCN2CC=C(c3c[nH]c4cc(F)ccc34)CC2)c2cccc3c2N1CCC3
scaled lipid accumulation score [1]: inactive: 0.128

Clc1ccc(N2CCN(Cc3c[nH]c4ncccc34)CC2)cc1 [L-745,870 trihydrochloride]
scaled lipid accumulation score [1]: inactive: 0.37

CN=C(NS(=O)(=O)c1ccc(Cl)cc1)N1CC(c2ccccc2)C(c2ccc(Cl)cc2)=N1 (centres undefined)
scaled lipid accumulation score [3]: inactive: ≤ 0

O=[N+]([O-])c1ccc(O)c([N+](=O)[O-])c1 [2,4-dinitrophenol]
scaled lipid accumulation score [1]: inactive: ≤ 0

CC1OC(OC2/C=C/C=C/C=C/C=C/CC/C=C/C=C/[C@H](C)[C@@H](O)[C@@H](C)[C@H](C)OC(=O)CC(O)CC(O)CC(O)CCC(O)C(O)C[C@]3(O)CC(O)C(C(=O)O)C(C2)O3)C(O)C(N)C1O (some centres undefined) [Nystatine]
scaled lipid accumulation score: inactive: ≤ 0

CN1CCN(c2ccc3ccccc3n2)CC1 [N-Methylquipazine dimaleate]
scaled lipid accumulation score [1]: inactive: 0.327

NCCCNCCSP(=O)(O)O [Amifostine]
scaled lipid accumulation score (library stock concentration: 9.3 mM): inactive: ≤ 0 | scaled lipid accumulation score [1]: inactive: ≤ 0

CCC(=O)O[C@H]1CC[C@H]2[C@@H]3CCC4=CC(=O)CC[C@]4(C)[C@H]3CC[C@]12C [Testosterone propionate]
scaled lipid accumulation score: inactive: ≤ 0 | scaled lipid accumulation score (library stock concentration: 5.8 mM): inactive: 0.578 | scaled lipid accumulation score [1]: inactive: 0.536

CC([C@H](O)c1ccccc1)N(C)C (some centres undefined)
scaled lipid accumulation score [1]: inactive: 0.129

CCOc1cncc(/C=C/CCNC)c1 [TC 2559 difumarate]
scaled lipid accumulation score [1]: inactive: ≤ -0.001

COc1ccc(OC)c(C(O)C(C)N)c1 (centres undefined) [Methoxamine hydrochloride]
scaled lipid accumulation score: inactive: ≤ 0 | scaled lipid accumulation score (library stock concentration: 8.1 mM): inactive: 0.032 | scaled lipid accumulation score [1]: inactive: ≤ 0 and inactive: ≤ -0.055

Ic1cncc(OC[C@@H]2CCN2)c1
scaled lipid accumulation score [1]: inactive: ≤ -0.006

Cc1sc2c(c1C)C(c1ccc(Cl)cc1)=N[C@@H](CC(=O)OC(C)(C)C)c1nnc(C)n1-2
scaled lipid accumulation score (library stock concentration: 80 uM): inactive: ≤ 0 | scaled lipid accumulation score (library stock concentration: 400 uM): inactive: ≤ 0 | scaled lipid accumulation score [4]: inactive: ≤ 0 | scaled lipid accumulation score [2]: inactive: ≤ -0.009 | scaled lipid accumulation score [1]: inactive: 0.034 and inactive: ≤ 0

COC(=O)[C@]1(O)C[C@@H]2O[C@@]1(C)n1c3ccccc3c3c4c(c5c6ccccc6n2c5c31)C(=O)NC4 [K-252a, Nocardiopsis sp.]
scaled lipid accumulation score [2]: inactive: 0.362

C=CCN1CC[C@]2(C)c3cc(O)ccc3C[C@H]1C2C (single isomer, unassigned; (+))
scaled lipid accumulation score [1]: inactive: 0.02

CN1C2CC(=O)CC1C(O)C2 (centres undefined) [6-Hydroxytropinone]
scaled lipid accumulation score: inactive: ≤ 0

C[C@@H]1CC[C@]2(NC1)O[C@H]1C[C@H]3[C@@H]4CC=C5C[C@@H](O)CC[C@]5(C)[C@H]4CC[C@]3(C)[C@H]1[C@@H]2C [Solasodine]
scaled lipid accumulation score: inactive: ≤ 0 | scaled lipid accumulation score [1]: inactive: ≤ -0.027

O=C(CCCN1CCC(n2c(=O)[nH]c3ccccc32)CC1)c1ccc(F)cc1 [Benperidol]
scaled lipid accumulation score: inactive: 0.202

O=C1CCO1 [Beta-propiolactone]
scaled lipid accumulation score [1]: inactive: ≤ -0.027 | scaled lipid accumulation score (library stock concentration: 27.8 mM): inactive: ≤ 0

CCC(Oc1ccc(Cl)cc1)C(=O)OC1CC2CCC(C1)N2C.O=C(O)/C=C\C(=O)O (centres undefined) [SM-21 maleate]
scaled lipid accumulation score [1]: active: 0.886

C[C@]12CC[C@H](O)C[C@H]1CC[C@@H]1[C@@H]2CC[C@]2(C)[C@@H](C3=CC(=O)OC3)CC[C@]12O [Digitoxigenin]
scaled lipid accumulation score: active: 0.936

O=C1C2CCN(CC2)C1(CO)CO
scaled lipid accumulation score [3]: inactive: ≤ 0 | scaled lipid accumulation score [1]: inactive: 0.045

COc1cc2c(cc1O)C[C@H]1c3c(cc(O)c(OC)c3-2)CCN1C [Boldine]
scaled lipid accumulation score: inactive: 0.014

C[C@H]1CC[C@]2(NC1)O[C@H]1C[C@H]3[C@@H]4CC[C@H]5C[C@@H](O[C@@H]6O[C@H](CO)[C@H](O[C@@H]7O[C@H](CO)[C@@H](O)[C@H](O[C@@H]8OC[C@@H](O)[C@H](O)[C@H]8O)[C@H]7O[C@@H]7O[C@H](CO)[C@@H](O)[C@H](O)[C@H]7O)[C@H](O)[C@H]6O)CC[C@]5(C)[C@H]4CC[C@]3(C)[C@H]1[C@@H]2C [Tomatine]
scaled lipid accumulation score: inactive: 0.319

COc1ccc(C(=O)OC2C[C@H]3CC[C@@H](C2)N3C)cc1OC (some centres undefined) [Convolamine hydrochloride]
scaled lipid accumulation score: inactive: 0.027

CCc1cc2c(s1)-n1c(C)nnc1CN=C2c1ccccc1Cl [Etizolam]
scaled lipid accumulation score [2]: inactive: ≤ 0 | scaled lipid accumulation score [1]: inactive: ≤ -0.001

C(=C\c1ccccc1)/CN1CCN(CCOC(c2ccccc2)c2ccccc2)CC1
scaled lipid accumulation score [1]: inactive: 0.301

CCCC[N+]1(C)[C@@H]2C[C@@H](OC(=O)[C@H](CO)c3ccccc3)C[C@H]1[C@@H]1O[C@@H]12 (single isomer, unassigned; (-)) [(-)-Scopolamine,n-Butyl-, bromide]
scaled lipid accumulation score [1]: inactive: ≤ 0

CCCC[N+]1(C)[C@@H]2C[C@@H](OC(=O)[C@H](CO)c3ccccc3)C[C@H]1[C@@H]1O[C@@H]12 (single isomer, unassigned; (-)) [Butylscopolamine Bromide]
scaled lipid accumulation score [2]: inactive: 0.04 | scaled lipid accumulation score [1]: inactive: 0.081

C[C@@H]1CN([C@H]2CC[C@](C#N)(c3ccc(F)cc3)CC2)CC[C@]1(C(=O)O)c1ccccc1 [Levocabastine hydrochloride]
scaled lipid accumulation score: inactive: ≤ 0

C[C@@H]1CN([C@H]2CC[C@](C#N)(c3ccc(F)cc3)CC2)CC[C@]1(C(=O)O)c1ccccc1 [Levocabastine HCl]
scaled lipid accumulation score [5]: inactive: 0.001

C[N+]1(C)C2CCC1CC(OC(=O)c1c[nH]c3ccccc13)C2 (centres undefined) [3-Tropanylindole-3-carboxylate methiodide]
scaled lipid accumulation score [1]: inactive: ≤ 0

N#C/C(=C\c1ccc(O)c(O)c1)C(N)=S [Tyrphostin 47]
scaled lipid accumulation score [1]: inactive: ≤ 0

N#C/C(=C\c1ccc(O)c(O)c1)C(N)=S [AG213 (Tyrphostin 47)]
scaled lipid accumulation score (library stock concentration: 22.7 mM): inactive: 0.005

c1ccc2sc(C3(N4CCCCC4)CCCCC3)cc2c1 [BTCP hydrochloride]
scaled lipid accumulation score [1]: inactive: 0.74

c1ccc2sc(C3(N4CCCCC4)CCCCC3)cc2c1 [BTCP maleate]
scaled lipid accumulation score [1]: inactive: 0.248

COc1cc(N)c(Cl)cc1C(=O)NC1CN2CCC1CC2 (centres undefined) [Zacopride hydrochloride]
scaled lipid accumulation score [1]: inactive: ≤ -0.006

COc1cc(N)c(Cl)cc1C(=O)NC1CN2CCC1CC2 (centres undefined) [Zacopride]
scaled lipid accumulation score [1]: inactive: ≤ 0

COc1cc(OC)c(OC)cc1C=O [Asarylaldehyde]
scaled lipid accumulation score [1]: inactive: 0.084

COc1cc(OC)c(OC)cc1C=O [Asaraldehyde]
scaled lipid accumulation score [2]: inactive: 0.002 | scaled lipid accumulation score [1]: inactive: ≤ 0

C[N+]1(C)CCCC(OC(=O)C(O)(c2ccccc2)c2ccccc2)C1 (centres undefined) [Mepenzolate bromide]
scaled lipid accumulation score: inactive: ≤ 0 | scaled lipid accumulation score [5]: inactive: ≤ -0.001 | scaled lipid accumulation score [1]: inactive: ≤ 0

C[N+]1(C)CCCC(OC(=O)C(O)(c2ccccc2)c2ccccc2)C1 (centres undefined) [Cantil]
scaled lipid accumulation score [1]: inactive: ≤ 0

C#CC(C)(O)CC (centres undefined)
scaled lipid accumulation score [1]: inactive: ≤ 0

CN1C2CCC1CC(O)C2 (centres undefined) [Tropine]
scaled lipid accumulation score: inactive: ≤ 0

O=C1C=C2C(C(C)=C1O)=CC=C3[C@]2(CCC4([C@@H]5C[C@@](CC[C@@]5(CC[C@]34C)C)([C@@](O)=O)C)C)C (some centres undefined) [Celastrol]
scaled lipid accumulation score [4]: active: 1.14 | scaled lipid accumulation score [1]: active: 1.14

COc1ccc(CNC(=O)/C=C/c2ccc3[nH]cc(CCN(C)C)c3c2)cc1
scaled lipid accumulation score [1]: active: 1.03

NC1CCc2cc(O)c(O)cc2C1 (centres undefined) [6,7-ADTN hydrobromide]
scaled lipid accumulation score [1]: inactive: ≤ -0.07

NC1CCc2cc(O)c(O)cc2C1 (centres undefined)
scaled lipid accumulation score (library stock concentration: 27.9 mM): inactive: 0.022

COc1ccc2[nH]cc(C3=CCNCC3)c2c1.COc1ccc2[nH]cc(C3=CCNCC3)c2c1.O=C(O)CCC(=O)O
scaled lipid accumulation score [1]: active: 1.68

Cc1sc2c(c1C)C(c1ccc(Cl)cc1)=NC(CC(N)=O)c1nnc(C)n1-2 (centres undefined)
scaled lipid accumulation score [2]: inactive: ≤ -0.009 | scaled lipid accumulation score [1]: inactive: 0.039

Reference: the supplement of paper PMC9135407
